The values below come from article PMC5501724, “Structural Basis for Specific Interaction of TGFβ Signaling Regulators SARA/Endofin with HD-PTP” (Structure(London, England:1993), 2017).

Common to all, as to experiment: co-IP; endofin(1–84) and His6HD-PTP Bro1-CC (wild type and mutants) co-translated in vitro, then immunoprecipitated with anti-His (Figure S3)
In assay [1] the target is T1, His6HD-PTP_(Bro1-CC) R198M, in vitro co-translated (human) (UniProt Q9H3S7).
T1 sequence: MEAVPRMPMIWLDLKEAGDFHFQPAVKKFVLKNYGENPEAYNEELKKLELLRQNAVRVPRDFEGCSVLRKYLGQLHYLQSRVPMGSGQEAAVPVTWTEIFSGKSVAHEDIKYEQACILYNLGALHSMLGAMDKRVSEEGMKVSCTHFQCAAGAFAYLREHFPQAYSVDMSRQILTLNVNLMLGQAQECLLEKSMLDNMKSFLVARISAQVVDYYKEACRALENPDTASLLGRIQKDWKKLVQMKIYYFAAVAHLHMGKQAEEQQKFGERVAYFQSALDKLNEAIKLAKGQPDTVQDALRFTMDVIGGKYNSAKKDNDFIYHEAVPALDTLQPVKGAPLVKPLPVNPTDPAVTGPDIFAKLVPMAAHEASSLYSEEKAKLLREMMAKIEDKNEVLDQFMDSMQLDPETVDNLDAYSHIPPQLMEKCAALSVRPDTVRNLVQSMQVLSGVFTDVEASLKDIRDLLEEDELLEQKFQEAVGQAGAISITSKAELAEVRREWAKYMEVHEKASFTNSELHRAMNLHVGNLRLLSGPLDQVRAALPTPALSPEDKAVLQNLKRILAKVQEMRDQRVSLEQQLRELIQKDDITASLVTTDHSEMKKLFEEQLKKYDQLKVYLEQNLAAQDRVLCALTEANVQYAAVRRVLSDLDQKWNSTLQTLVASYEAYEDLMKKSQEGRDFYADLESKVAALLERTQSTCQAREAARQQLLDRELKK

Assay [2] addresses T2, His6HD-PTP_(Bro1-CC) R69L, in vitro co-translated (human) (UniProt Q9H3S7).
T2 sequence: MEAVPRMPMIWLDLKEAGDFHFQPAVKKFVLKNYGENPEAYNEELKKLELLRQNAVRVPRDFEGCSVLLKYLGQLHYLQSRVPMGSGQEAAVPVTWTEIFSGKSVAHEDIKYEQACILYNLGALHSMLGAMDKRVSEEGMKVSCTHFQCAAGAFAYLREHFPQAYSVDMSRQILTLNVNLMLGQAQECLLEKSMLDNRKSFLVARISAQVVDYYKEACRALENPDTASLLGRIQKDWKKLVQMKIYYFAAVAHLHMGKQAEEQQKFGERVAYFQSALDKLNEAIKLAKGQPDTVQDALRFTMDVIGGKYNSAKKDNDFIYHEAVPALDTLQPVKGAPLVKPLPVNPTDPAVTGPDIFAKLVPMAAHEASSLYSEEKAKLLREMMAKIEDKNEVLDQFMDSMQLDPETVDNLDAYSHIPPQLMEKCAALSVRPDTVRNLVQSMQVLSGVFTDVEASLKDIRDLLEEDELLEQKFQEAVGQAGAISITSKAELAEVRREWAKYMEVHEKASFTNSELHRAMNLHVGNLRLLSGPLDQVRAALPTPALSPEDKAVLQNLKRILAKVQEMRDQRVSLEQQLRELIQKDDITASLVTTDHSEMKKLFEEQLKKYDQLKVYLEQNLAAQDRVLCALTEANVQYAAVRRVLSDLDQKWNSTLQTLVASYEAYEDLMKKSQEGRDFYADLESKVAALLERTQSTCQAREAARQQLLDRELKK

For assay [3], the target named is T3, His6HD-PTP_(Bro1-CC) T145K, in vitro co-translated (human) (UniProt Q9H3S7).
T3 sequence: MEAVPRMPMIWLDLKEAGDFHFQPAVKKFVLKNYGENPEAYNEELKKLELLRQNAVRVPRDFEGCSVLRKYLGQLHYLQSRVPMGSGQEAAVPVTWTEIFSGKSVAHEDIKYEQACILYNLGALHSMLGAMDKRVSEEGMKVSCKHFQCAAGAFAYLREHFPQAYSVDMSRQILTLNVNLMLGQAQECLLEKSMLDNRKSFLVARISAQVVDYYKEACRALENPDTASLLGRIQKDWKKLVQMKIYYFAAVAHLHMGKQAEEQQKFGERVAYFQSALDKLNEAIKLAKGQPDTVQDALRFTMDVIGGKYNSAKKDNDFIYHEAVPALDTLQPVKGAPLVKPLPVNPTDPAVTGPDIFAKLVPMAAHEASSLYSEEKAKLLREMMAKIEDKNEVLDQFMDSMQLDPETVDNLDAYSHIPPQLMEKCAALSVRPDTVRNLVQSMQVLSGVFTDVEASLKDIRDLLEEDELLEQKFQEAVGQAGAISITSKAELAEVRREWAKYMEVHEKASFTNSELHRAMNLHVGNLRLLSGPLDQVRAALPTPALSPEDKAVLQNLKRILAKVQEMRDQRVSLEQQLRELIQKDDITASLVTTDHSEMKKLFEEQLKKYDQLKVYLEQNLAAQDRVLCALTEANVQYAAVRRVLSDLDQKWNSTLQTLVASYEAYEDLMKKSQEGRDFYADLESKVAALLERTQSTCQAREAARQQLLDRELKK

No constants are given. Whether binding was seen depends on the method and setting. Binding seen in cells or lysates may run through a third protein. Some entries that bind do so weakly or less than the wild type. Sequences can lack the tags named with a protein.

B1: endofin_(1–84)-strep, in vitro translated (domain or fragment, UniProt Q7Z3T8 1-84)
chain: MDSYFKAAVSDLDKLLDDFEQNPDEQDYLQDVQNAYDSNHCSVSSELASSQRTSLLPKDQECVNSCASSETSYGTNESSLNEKT
modifications: 35S-methionine
For B1, the binding result is listed as “binds” in assay [1], “binds” in assay [2] and “no binding” in assay [3].
